Assay results taken from PubChem BioAssay AID1346428 (National Center for Advancing Translational Sciences (NCATS), 2018).
Several values for one entry are separate records, joined by “and”; a condition that tells them apart may be missing. Equal entries are not always repeated. Screen size: about 48,000 compounds; about 1,200 (2.5%) were called active. Inconclusive results (about 2%) are left out.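 Rule for the calls: active = activation of at least 60% and not above a set upper limit (about 1 call in 100 departs from these limits); inconclusive = activation of 40% to 60%, or above that upper limit; inactive = activation under 40%.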 The list shows a part of the results.

Target: Probable G-protein coupled receptor 32 (Homo sapiens) (UniProt O75388)
Assay: qHTS for Agonists of Human Resolvin D1 Receptor DRV1; note: 0% is about no effect
Conditions: CHO-K1 GPR32 beta-arrestin PathHunter luminescence, 90 min; at 76.9 µM; active compounds read high; zero percent set by DMSO-only wells
How it was run: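 Luminescent readout of beta-Gal complementation quantifies ligand-induced beta-arrestin association with GPR32 in CHO-K1 cells; 90 min compound incubation at 37 °C, detection 1 h at room temperature.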

UniProt O75388, sequence (O75388 whole entry, looked up): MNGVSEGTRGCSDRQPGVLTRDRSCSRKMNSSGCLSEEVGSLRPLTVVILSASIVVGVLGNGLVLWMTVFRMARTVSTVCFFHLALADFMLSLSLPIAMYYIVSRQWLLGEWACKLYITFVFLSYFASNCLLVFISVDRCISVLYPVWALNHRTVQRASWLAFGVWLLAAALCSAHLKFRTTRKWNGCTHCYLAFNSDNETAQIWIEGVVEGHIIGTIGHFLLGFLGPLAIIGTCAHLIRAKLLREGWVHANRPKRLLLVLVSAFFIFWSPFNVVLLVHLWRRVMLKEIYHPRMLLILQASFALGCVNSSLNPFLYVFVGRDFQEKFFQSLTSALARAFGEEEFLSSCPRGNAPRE

activation, active:
CC1=C(C(=O)OCc2ccc(C)cc2)C(c2ccccc2F)CC(=O)N1 (centres undefined) 66.8%
O=C1OC2(c3ccc(O)cc3Oc3cc(O)ccc32)c2ccccc21 111%

activation, inactive:
CCOC(=O)c1c(C)[nH]c(C)c1S(=O)(=O)N1CCC(C(=O)N2CCN(c3ccc(Cl)cc3)CC2)CC1 -4.11%
COc1ccc(-n2c(=O)c3c4c(sc3n(Cc3ccccc3)c2=O)CN(C(C)=O)CC4)cc1OC -25%
COc1ccccc1NC(=O)c1ccc2c(Cl)c3c(nc2c1)CCCC3 23.9%
CCOc1ccc(NC(=O)N2CC=C(c3c[nH]c4ccccc34)CC2)cc1 -7.92%
CC1=C(c2ccc(C)c(C)c2)S(=O)(=O)N=C1N1CCC(C(=O)NCCc2ccc(Cl)cc2)CC1 -6.27%
COc1ccccc1CNC(=O)Cn1c(=O)oc2cc(S(=O)(=O)N3CCCC3)ccc21 -7.12%
CCOC(=O)c1ccc(NC(=O)C2CC(=O)NC(=Nc3ccc(C)c(C)c3)S2)cc1 (centres undefined) -0.0505%
COc1ccccc1CNC(=O)c1cccc(N2CCCS2(=O)=O)c1 21.3%
Cc1ccc(N(CC(=O)NCCc2ccccc2C)S(=O)(=O)N(C)C)cc1 6.93%
Cc1cccc(NC(=O)Nc2ccc(F)cc2)n1 -11.1%
CCCCN(C)CCNC(=O)c1ccc(Cn2c(=O)[nH]c3cc(OC)c(OC)cc3c2=O)cc1 8.54%
CCCCCCCC/C=C\CCCCCCCC(=O)NCCc1ccc(O)c(O)c1 -7.6%
COc1cc(-c2nc(S(=O)(=O)c3ccc(Br)cc3)c(N3CCOCC3)o2)cc(OC)c1OC -23.1%
COc1ccc(-c2noc(N(c3ccc(F)c(Cl)c3)c3nc(-c4ccc(OC)c(OC)c4)no3)n2)cc1OC -1.93%
COc1ccc(Br)cc1C(=O)Nc1cccc2ccc(C)nc12 4.5%
CCc1ccc(CNC(=O)c2ccc3c(Cl)c4c(nc3c2)CCCC4)cc1 -3.68%
CCc1nc2nc(C)cc(Nc3cc(Cl)ccc3C)n2n1 -8.62%
CCOC(=O)c1cnn(-c2ccc(C(=O)Nc3ccc(OC(F)(F)F)cc3)cc2)c1N 28.9%
Cc1cc(N2CCN(c3cccc(C)c3C)CC2)n2cnnc2n1 6.1%
CC(=O)Nc1ccc(NC(=O)C2CCCN(S(=O)(=O)c3ccc4c(c3)CCCC(=O)N4)C2)cc1 (centres undefined) 16.8%
Cc1c(Cl)cccc1NC(=O)CCCn1nc(C)c2sc3ccccc3c2c1=O -11.2%
COCCCNC(=O)NC(CCC(C)C)c1c(-n2cccc2)sc2c1CCN(C)C2 (centres undefined) -27%
Cc1nnc(C)n1-c1ccc(C(=O)Nc2cccc(Br)c2)cc1 -2.06%
Cc1cccc(Cn2cc3c(=O)n(CC(=O)Nc4c(C)cccc4C)nc-3c3cc(F)ccc32)c1 -6.11%
COc1cccc(N2CCN(c3c4c(nc5nncn35)CCC4)CC2)c1 -60.8%
CCC1CCCCN1S(=O)(=O)c1ccc(NC(=O)c2cc(=O)c3c(C)cc(C)cc3o2)cc1 (centres undefined) 5.17%
CC(C)Sc1nc2sc3c(c2c(=O)n1Cc1ccccc1)CCCC3 -25.5%
COC(=O)c1cc2oc3ccccc3c2n1Cc1nc(-c2ccccc2Cl)oc1C -7.25%
CC1(C)CC(=O)c2cc(-c3nc(-c4ccccc4)cs3)c(=O)[nH]c2C1 29.6%
Cc1ccc(NC(=O)C2CCN(S(=O)(=O)c3c(C)noc3C)CC2)cc1 8.5%
O=C(NCCN1CCN(c2ccccc2)CC1)Nc1cccc(Br)c1 -15%
CCOc1ccc(NC(=O)CSc2nc3ccsc3c(=O)n2C(C)CC)cc1 (centres undefined) -8.74%
CCOc1ccccc1CNC(=O)Cc1ccc(NC(=O)N2CCCCc3ccccc32)cc1 -9.48%
COc1ccc(Nc2nc(-c3cccc(Cl)c3)c3c(n2)-c2ccccc2OC3)cc1 -29.2%
CCOc1ccc(CCNC(=O)CCc2c(C)nc3c(c(C)nn3-c3ccc(C)c(C)c3)c2C)cc1 16.1%
CCCCNS(=O)(=O)c1ccc2nc(-c3cccnc3)cc(C(=O)NCCCOC(C)C)c2c1 -5.49%
Cc1ccc2nc(NCc3ccccc3)c3nnnn3c2c1 -17.7%
COc1ccc(-c2noc(N3CCC(C(=O)N4CCN(c5ccccc5OC)CC4)CC3)n2)cc1 13.8%
Cc1cccc2c1-c1sc(C(=O)N3CCN(c4ccccc4)CC3)cc1CO2 -2.27%
CCOC(=O)c1cnc2c(C)c(Cl)ccc2c1NCCc1ccc(OC)c(OC)c1 -26.8%
CCOc1cccc(Nc2nn(-c3ccc(OC(F)(F)F)cc3)nc2C(C)=O)c1 -6.96%
CCC(C)NC(=O)CSc1nc2cc3c(cc2c(=O)n1CCCC(=O)NCCc1ccc(OC)c(OC)c1)OCO3 (centres undefined) -9.25%
COc1cccc(-c2nc(S(=O)(=O)c3ccccc3)c(N3CCCCC3)o2)c1 23.5%
COCCNC(=O)c1ccc2c(=O)n(CCc3ccccc3)c(SCC(=O)CC(=O)OC)nc2c1 -3.74%
CC(=O)OCC1=C(C(=O)O)N2C(=O)[C@@H](NC(=O)CSc3ccncc3)[C@H]2SC1 5.32%
COc1ccccc1CNC(=O)c1ccc(CS(=O)(=O)c2c(Cl)cccc2Cl)o1 18.2%
Cc1cccc(OCCSc2nc3ccccc3n2CC(=O)N2CCOCC2)c1 -14.5%
CCOC(=O)c1ccc(N2C(=O)c3[nH]nc(-c4ccc(C)cc4)c3C2c2ccc(O)c(OCC)c2)cc1 (centres undefined) -7.84%
CCOC(=O)c1c(C)[nH]c(C)c1S(=O)(=O)N(C)CC(=O)Nc1cc(Cl)ccc1C 1.25%
CCCn1c(=O)c2sccc2n2c(CCCC(=O)N3CCN(c4ccccc4OC)CC3)nnc12 -3.91%
Cc1ccccc1OCCCCn1c(-c2ccc(Cl)cc2)nc2ccccc2c1=O 12.2%
CCc1ccc(CNC(=O)c2c3c(nc4ccccc24)C(=O)N(C2CCCCC2)C3)cc1 -21.1%
COc1cc2c(=O)c(C(=O)c3ccc(C)c(C)c3)cn(Cc3ccccc3F)c2cc1OC 20.7%
Cc1ccc2c(=O)cc(C(=O)Nc3sc4c(c3C(=O)NCc3ccco3)CCC4)oc2c1 18.3%
COc1cc(NC(=O)CCc2c(C)nn(-c3ccc(N4CCOCC4)nn3)c2C)cc(OC)c1OC 5.49%
O=C(NCc1ccccc1F)C1CCN(c2nnc(-n3cccc3)s2)CC1 30.8%
COc1ccc2c(c1)c(=O)c(C(=O)c1ccccc1)cn2CC(=O)Nc1ccc2c(c1)OCCO2 -29.2%
COc1ccc(Cl)cc1NC(=O)Cn1ncc2c3ccccc3n(C)c2c1=O 4.27%
CCCCCCCCCCCCCCNCCO 12%
Cc1ccc2[nH]c3c(=O)n(CC(=O)NCc4ccco4)ncc3c2c1 8.65%
CCCN(Cc1cccs1)C(=O)Nc1cc(Cl)ccc1C -5.54%
Cc1nn(CC(=O)NCc2ccc(F)cc2)c2ccccc12 -13.1%
Cc1ccc(OCCSc2nnc(-c3cccs3)o2)cc1Cl 20.7%
Cc1ccc(C)c(N2CCN(C(=O)CCC(=O)Nc3ccc4nc(N5CCCCC5)cc(C)c4c3)CC2)c1 39.3%
O=C(NCc1ccc(Cl)cc1)c1ccc2c(Cl)c3c(nc2c1)CCCC3 -19.4%
CC(=O)Nc1ccc(NC(=O)C2CCN(c3c(NC(C)=O)c(C)nn3-c3ccccc3)CC2)cc1 -2.14%
CCOC(=O)c1ccc2nc(C)cc(Nc3cccc(C(=O)O)c3)c2c1 -9.84%
CCOC(=O)c1c(C)n(-c2ccccc2)c2ccc(OC(=O)c3ccccc3NC(=O)C(C)C)cc12 43.6%
CCOC(=O)c1cccc(NC(=O)CCCn2nc(C)c3c(C)n(-c4ccccc4)nc3c2=O)c1 1.99%
COc1ccc(-c2nc3cc(C(C)C)ccc3o2)cc1NC(=O)c1ccccc1[N+](=O)[O-] -24.6%
Cn1c(SCC(=O)Nc2ccccc2)nnc1-c1ccccc1 -3.28%
COc1ccc(Cl)cc1-n1nnc(-c2nc(-c3ccccc3)no2)c1C -5.99%
COc1ccc(NC(=O)C2COc3ccccc3C2)cc1Cl (centres undefined) -20.8%
Cc1ccc(Cn2c(CN3CCC(C(=O)NCc4ccccc4C)CC3)cc3ccccc32)cc1 4.89%
CCOc1ccccc1CNC(=O)CCn1c(=O)c2cccn2c2ccc(F)cc21 -17.6%
COc1ccc2c(c1)c(=O)c(C(=O)c1ccc(C)c(C)c1)cn2CC(=O)Nc1ccc2c(c1)OCCO2 -1.31%
Cc1ccc(CNc2nc(-c3ccco3)nn2S(C)(=O)=O)cc1 -8.03%
COC(=O)c1ccc(NC(=O)CCS(=O)(=O)c2ccc(Br)s2)cc1 -13.5%
Cc1nc(N2CCCC2)ncc1C(=O)NCc1cccc(Cl)c1 31.9%
COc1ccccc1N1CCN(C(=O)Cn2c(=O)n3nc(-c4ccc(C)cc4)nc3c3ccccc32)CC1 -0.132%
COc1ccc(NC(=O)c2cccc(N3CCCS3(=O)=O)c2)cc1OC 33.7%
Cc1ccc2c(n1)Oc1ccc(C(C)C(=O)OCC(=O)N(C)C)cc1C2 (centres undefined) 1.2% and 4.74%
